Results reported in a collection of fitness landscapes (doi:10.1016/j.celrep.2020.107928).
The full ranking holds about 81,000 sequences; the median of “one-hybrid fitness for binding NBS DNA” is about -0.1, and the highest 2% start at about 0.36. This is one part of the list.

B1: Caulobacter ParB omega fusion; a variant is named by its letters at X, in order, B8GW30 (parent)
chain: MESVVVGEPGMSEGRRGLGRGLSALLGEVDAAPAQAPGEQLGGSREAPIEILQRNPDQPRRTFREEDLEDLSNSIREKGVLQPILVRPSPDTAGEYQIVAGERAWRAAQRAGLKTVPIMVRELDDLAVLEIGIIENVQRADLNVLEEALSYKVLMEKFERTQENIAQTIGKSXSHVANXMRLLXLPDEVQSYLVSGELTAXHARAIAAAADPVALAKQIIEGGLSVRETEALARKAPNLSAGKSKGGRPPRVKDTDTQALESDLSSVLGLDVSIDHRGSTGTLTITYATLEQLDDLCNRLTRGI

Variants of: B1
Experiment: one-hybrid fitness for binding NBS DNA (the Noc-binding site; scaled: cognate 1, non-cognate 0); higher = stronger binding
Details: with NBS DNA site
How it was run: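 Caulobacter ParB libraries with four specificity codons randomised were screened by bacterial one-hybrid selection in the E. coli USO strain, using a HIS3 reporter whose site lies 19 bp from the promoter. Selection ran for 48 hours at 37°C on M9 lacking histidine, with 0.1 mM IPTG and 5 mM 3-AT. Plasmids were Illumina-sequenced before and after selection, three replicate libraries were pooled, and variants with under 10 reads were dropped. Fitness is the log change in each variant's read ratio to wild type, rescaled against the cognate and non-cognate sites.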

Variant | one-hybrid fitness for binding NBS DNA
WTPC | ≤ 0.2
CRVI | ≤ 0.2
ATDN | ≤ 0.2
QENY | ≤ 0.2
HMAM | ≤ 0.2
TGTP | ≤ 0.2
LKVG | ≤ 0.2
RIDR | ≤ 0.2
DLFT | ≤ 0.2
SPKM | ≤ 0.2
TLQN | ≤ 0.2
AAAA | ≤ 0.2
ARYR | ≤ 0.2
TFDR | ≤ 0.2
WKWG | ≤ 0.2
TQVE | ≤ 0.2
WGAG | ≤ 0.2
MFHR | ≤ 0.2
RIKD | ≤ 0.2
AQRS | ≤ 0.2
ASPT | ≤ 0.2

Variant | one-hybrid fitness for binding NBS DNA
CLTF | ≤ 0.2
PNFW | ≤ 0.2
PWSY | ≤ 0.2
QYCN | ≤ 0.2
AADV | ≤ 0.2
LRVM | ≤ 0.2
HHMC | ≤ 0.2
GDLS | ≤ 0.2
AQFR | ≤ 0.2
QKYL | ≤ 0.2
NPSF | ≤ 0.2
RWVV | ≤ 0.2
SDDH | ≤ 0.2
LNNV | ≤ 0.2
QFSR | ≤ 0.2
QSKF | 0.29
LELR | ≤ 0.2
CTSM | ≤ 0.2
RMIR | 0.253
SEPL | ≤ 0.2
YVQV | ≤ 0.2

Variant | one-hybrid fitness for binding NBS DNA
QDLL | ≤ 0.2
VYGS | ≤ 0.2
QTPG | ≤ 0.2
NRWG | ≤ 0.2
ILAL | ≤ 0.2
RPTD | ≤ 0.2
QKGR | 0.616
KMWY | ≤ 0.2
NAYL | ≤ 0.2
FNRW | ≤ 0.2
WAAR | ≤ 0.2
MGRA | ≤ 0.2
PHGR | ≤ 0.2
AAES | ≤ 0.2
TPQT | ≤ 0.2
LYWW | ≤ 0.2
EDAT | ≤ 0.2
PREM | ≤ 0.2
ARHM | ≤ 0.2
LYHT | ≤ 0.2
KMWT | ≤ 0.2

Variant | one-hybrid fitness for binding NBS DNA
HSDG | ≤ 0.2
ISMH | ≤ 0.2
VPVC | 0.222
TACW | ≤ 0.2
EDYM | ≤ 0.2
AGFR | ≤ 0.2
TSME | ≤ 0.2
RSAN | ≤ 0.2
CLAV | ≤ 0.2
WDCT | ≤ 0.2
PITW | ≤ 0.2
QDAE | ≤ 0.2
IRDR | ≤ 0.2
GELY | ≤ 0.2
LPRC | ≤ 0.2
QWDS | ≤ 0.2
TAYC | ≤ 0.2
CSIA | ≤ 0.2
KKER | ≤ 0.2
CFMT | ≤ 0.2
IDDF | ≤ 0.2
